The values that follow come from PMC12136788.

Some of the results follow.

First the molecules themselves.
B1: chr8:27733518:27733645:-|3pUTR|ENSG00000147419|unk|FALSE|unique (ssRNA)
RNA: GGGAGUUCUACAGUCCGACGAUCGACCUUUUGAUUUUGAAGCAGACUAAAAUCUGACCAGACCACAAUGAAAAGUAUAAAAUUAGAAACUUAAAUUCCAAGCUAAAUUUCAGCUUUGACCCACCUAACUCCAGUGAAUAGGUGCAACAGAGGAUUGAGCAUCA
B2: chr3:152462637:152462738:+|3pUTR|ENSG00000152601|msi1|total|mutant (ssRNA)
RNA: GGGAGUUCUACAGUCCGACGAUCGAACAACAUUGUCUUUCUUUUCCCGCACAGAGUUAUGCAUUCAAAGAUGCAUACCCCGUCCGUUUCCUAUAUAUUCAUGCCAUCUUGAAAAGACAGACUAUGGUGUAACCAUGAUUCUAUCAACAGAGGAUUGAGCAUCA
B3: ENSG00000198589:be:win_2201|CDS|ENSG00000198589|bound_else_gene|NA|bound_elsewhere_windowed (ssRNA)
RNA: GGGAGUUCUACAGUCCGACGAUCGAAUCAGGGUACAAGCUCUUAAGGCAAUGGGUUAUUUUUUAAAACAUCUGGCCCCAAAGAGGAAAGCAGAAGUCAUGCUUGGACAUGGAUUGUUUUCAUUGCUAGCUGAAAGGCUCAUGCCAACAGAGGAUUGAGCAUCA
B4: chr5:56881662:56881777:+|CDS|ENSG00000095015|unk|FALSE|unique (ssRNA)
RNA: GGGAGUUCUACAGUCCGACGAUCGAUCUACUUGAGUUCUGCAAGAAUGGUUACUACAGUACCCCAUGUGUUUUCAAAACUGUUAGAAAUGCUGAGUGUUUCCAGUUCCACUCACUUCACCAGGAUGCGUCGCCGUUUGAUGGCCAACAGAGGAUUGAGCAUCA
B5: chr4:138171397:138171528:-|3pUTR|ENSG00000151012|msi1|FALSE|unique (ssRNA)
RNA: GGGAGUUCUACAGUCCGACGAUCAUUAUGGCAAAGAGGAGAGAAAGAAAUUUAUUUUACAUUGACAUUGCAUUGCUUCCCCUUAGAUACCAAUUUAGAUAACAAACACUCAUGCUUUAAUGGAUUAUACCCAGAGCACUUUGACAACAGAGGAUUGAGCAUCA
B6: chr22:46316300:46316401:+|CDS|ENSG00000075218|unk|total|mutant (ssRNA)
RNA: GGGAGUUCUACAGUCCGACGAUCGGCGGCCAGUGGCUGAACUCCAGUUGCGCUUGGUCAGAAUCUUCUCAAUUGAAUAAGACCCGAAGUAUCAGACGGCGAGAUUCCUGUCUAAAUUCCAAGACAAAGGUUAUGCCUACUCCUCAACAGAGGAUUGAGCAUCA
B7: chr2:128192346:128192447:+|3pUTR|ENSG00000136731|msi1|total|mutant (ssRNA)
RNA: GGGAGUUCUACAGUCCGACGAUCAGAAAAUGAUGUUACCACUAAAAUAUUUUCUCCAAGAAGGCAUACUGUAACAGAAAAGACCGGUAAGAUAUUUUUUUCCCAAGAAGUAAGAAUUGAUUGUGCUGAAUGUUCAAACUCUGGCAACAGAGGAUUGAGCAUCA
B8: chr3:152464585:152464701:+|3pUTR|ENSG00000152601|msi1|total|mutant (ssRNA)
RNA: GGGAGUUCUACAGUCCGACGAUCAUAUUUUUGAAAUCCCUGAGUAUCAGGCCUUGUUAUAAAUAAGCUGCAUAAUCAAUAAACCGAACAAGGGACUUUUUGUUGAUAAUCCAAAUACUCAAAGUUUACGUAAUGAAAAUUAUACAACAGAGGAUUGAGCAUCA
B9: chr15:22826343:22826444:+|3pUTR|ENSG00000170113|msi1|total|mutant (ssRNA)
RNA: GGGAGUUCUACAGUCCGACGAUCAAAGUCCAUUACUCUUUUUAUUGGCUCUUGCAGGUUUUGUGUUUUAUCAUCAGUGCUUUCCGAAAUGCAGGCCUUAACUUACUGAACUGAACUUUCUGAAAACGUAAUGCCGCAGUAUCACAACAGAGGAUUGAGCAUCA
B10: chrX:153456492:153456651:-|CDS|ENSG00000213397|control|control|control (ssRNA)
RNA: GGGAGUUCUACAGUCCGACGAUCAUGGAGCACUUCGAGGACACCAGGGAGAAGAACGAGGCCUUGCUGGGGGAGCUCUUCUCUAGCCCCCACCUGCAGAUGCUCCUGAAUCCAGAGUGCGACCCGUGGCCCCUGGACAUGCAGCAACAGAGGAUUGAGCAUCA
B11: ENSG00000167767:stop:overlap|stop_codon|ENSG00000167767|stop_codon|NA|stop_codon (ssRNA)
RNA: GGGAGUUCUACAGUCCGACGAUCGCGCUGUGCAGUCCAGGUGCAAAACCGCCCCUUCCCUCCCCUACCCCUUAUGUUCCCUGUAGCUGCCUCCAGAUCAGGCCUCUCCAAGGCCCCCUCCCGAAAGAAGAAGGGCAGCAAAGGCAACAGAGGAUUGAGCAUCA
B12: chr19:14961309:14961997:-|three_prime_utr|ENSG00000105143|control|control|control (ssRNA)
RNA: GGGAGUUCUACAGUCCGACGAUCGAUUCACUUACCCACUCACCAACUCAUUCAUUCAUGUCUUUCUGGGAUGAUUUCAUCACUAGUUGACUUCCUUGUUCAUCUGUUCAUUCAUUCAUUCUUCUAUGCAUUGGUUAGUUCAUGCAACAGAGGAUUGAGCAUCA
B13: chr8:79641408:79641533:+|CDS|ENSG00000104435|unk|total|mutant (ssRNA)
RNA: GGGAGUUCUACAGUCCGACGAUCCCAGGCUUUUGAGCUGAUCUUGAAGCCACCAUCUCCUAUCUCAGAAGCCCCACGAACUUCCGCUUCUCCAAAGAAGAAAGACCUGUCCCUGGAGGAGAUCCAGAAGAAACUGGAGGCUGCCAACAGAGGAUUGAGCAUCA
B14: chr17:63968022:63968355:-|CDS|ENSG00000007314|control|control|control (ssRNA)
RNA: GGGAGUUCUACAGUCCGACGAUCGAAAAAGCUGUCGGAUGUGAUGAUCCUCACUGUCUUCUGCCUGAGCGUCUUUGCGCUGGUAGGACUGCAGCUCUUCAUGGGAAACCUGAGGCAGAAGUGUGUGCGCUGGCCCCCGCCGUUCAACAGAGGAUUGAGCAUCA
B15: ENSG00000156976:stop:overlap|stop_codon|ENSG00000156976|stop_codon|NA|stop_codon (ssRNA)
RNA: GGGAGUUCUACAGUCCGACGAUCCUUUGGUUAUAAAUUAUGAUCUACCUACCAAUCGUGAAAACUAUAUUCACAGGAGUCGAUAGCAGCAGUUGGUGACGAGAUGGCACUCAGAAACGGCGUUGACGUAAUUUAGGACGUGGACAACAGAGGAUUGAGCAUCA
B16: chr10:71816642:71816777:-|3pUTR|ENSG00000197746|msi1_unk|total|mutant (ssRNA)
RNA: GGGAGUUCUACAGUCCGACGAUCUUGUUUGGGGUUCUGUGGGUUUGGGUGGGAAGAGGGCCAUCUGCCUGAAUGUAACCUGCCCGCUCUCCGAAGGCCCUGCGGGCCUGGCUUGUGUGAGCGUGUGGACAGUGGUGGCCGCGCCAACAGAGGAUUGAGCAUCA
B17: chr11:73394502:73394603:+|CDS|ENSG00000054967|msi1|total|mutant (ssRNA)
RNA: GGGAGUUCUACAGUCCGACGAUCCACCAUCUCCACACCGUGCAGGGCCUGGCCUCGCUCUCUGGCCCCUGCUGCUCCCGCUGCCGCCAGAAGAAGUGGCCCGAGGUGCUGCUGUCCCCUGAGGCUGCCGCCGCCACUACUCCUCAACAGAGGAUUGAGCAUCA
B18: chr12:103777333:103777434:-|3pUTR|ENSG00000111696|msi1|FALSE|unique (ssRNA)
RNA: GGGAGUUCUACAGUCCGACGAUCUCCUGAACAUUUACGGGCUAUGCAUUGGGAACUGCAGGGGCACAGUGAUGGGCAAAGAUUAGCUGCUUCCAGAAGGCUGAUUUCGUGGGCUCCACAAUGGUAAAACGCUGCUGUGAGUGGCAACAGAGGAUUGAGCAUCA
B19: chr18:62902975:62903076:+|CDS|ENSG00000081913|unk|FALSE|unique (ssRNA)
RNA: GGGAGUUCUACAGUCCGACGAUCAGUGGACUUUCUACAGCAUGUUACUCAGCUUGACCUACGAGACAAUAAGCUUGGUGAUCUAGAUGCUAUGAUUUUCAACAACAUUGAAGUUUUACACUGUGAAAGGAAUCAACUGGUCACCAACAGAGGAUUGAGCAUCA
B20: chr16:30610213:30610351:-|CDS|ENSG00000289491|control|control|control (ssRNA)
RNA: GGGAGUUCUACAGUCCGACGAUCCUCCGGUCAAUAAAAUCGAUAGCUGGAAGCUGCCUGUGUUCCAGGCAAAGGCGGUGCGGUAGCAGCGCCGCCAUUUUCCCCGAAGGCAUCUUCCGGUGCCUUUCACCCAAGUUCGGGCAGCAACAGAGGAUUGAGCAUCA
B21: chr6:151351738:151351839:+|CDS|ENSG00000131016|msi1|total|mutant (ssRNA)
RNA: GGGAGUUCUACAGUCCGACGAUCGGUGGUGGGGCAGACCACCCCAGAAAGCUUUGAAAAAGCUCCUCAAGUCACAGAGAGCACCGAGUCCAGUGAGCUUGUAACCACUUGUCAAGCCGAAACCUCCGCUGGGGUAAAAUCACACAACAGAGGAUUGAGCAUCA
B22: chr15:76949589:76949706:+|3pUTR|ENSG00000117906|msi1_unk|total|mutant (ssRNA)
RNA: GGGAGUUCUACAGUCCGACGAUCAUAAAUUUUUGUUUUUGUUCUAAGCCGAUUUAAUUUGGGAACUGACAGGACAAUGUUUUCCGGUUCCGCAUUUUGUUUAAAAACCUUUAAAGAAACCUUCCGAAGGACUCCGACCUCACACAACAGAGGAUUGAGCAUCA

In the assay the target is MSI1 full-length (mouse, UniProt Q61474 1-362). As to the kind of experiment: nsRBNS (natural sequence RNA bind-n-seq); RBNS binding buffer (assumed for nsRBNS): 25 mM Tris pH 7.5, 150 mM KCl, 3 mM MgCl2, 0.01% Triton X-100, 500 ug/ml BSA, 20 U/ml SUPERase-In, 4 C; UNK is unkempt and MSI1 is Musashi-1; names of the RNAs are library labels; protein concentration not given here; high values mean tight binding.
Sequence of UniProt Q61474 (Q61474 whole entry): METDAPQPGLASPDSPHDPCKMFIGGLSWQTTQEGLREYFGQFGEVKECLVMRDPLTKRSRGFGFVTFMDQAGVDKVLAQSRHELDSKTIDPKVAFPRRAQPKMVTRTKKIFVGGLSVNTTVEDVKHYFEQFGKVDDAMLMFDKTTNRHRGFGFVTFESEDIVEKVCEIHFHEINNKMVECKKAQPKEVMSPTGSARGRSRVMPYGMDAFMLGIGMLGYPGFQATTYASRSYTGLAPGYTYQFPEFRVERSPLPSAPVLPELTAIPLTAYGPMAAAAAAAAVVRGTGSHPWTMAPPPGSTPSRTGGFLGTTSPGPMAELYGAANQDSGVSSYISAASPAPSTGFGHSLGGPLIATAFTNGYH
Take B1: the binding signal was found to be 2.32 enrichment R.

B2 displayed a binding signal of 0.374 enrichment R.

B3 came in with a binding signal of 0.299 enrichment R.

On to B4, for which the binding signal came to 0.44 enrichment R.

In turn, B5 registered a binding signal of 15.4 enrichment R.

With B6, the binding signal was 0.406 enrichment R.

In the case of B7, the binding signal came out at 0.521 enrichment R.

In turn, B8 displayed a binding signal of 0.736 enrichment R.

B9 returned a binding signal of 0.406 enrichment R.

B10 registered a binding signal of 0.408 enrichment R.

B11 gave a binding signal of 1.32 enrichment R.

B12 gave a binding signal of 0.578 enrichment R.

Take B13: the binding signal is 0.474 enrichment R.

As for B14, the binding signal is 0.38 enrichment R.

For B15, the binding signal came to 0.441 enrichment R.

In turn, B16 came in with a binding signal of 0.576 enrichment R.

Take B17: the binding signal is 0.758 enrichment R.

In turn, B18 yielded a binding signal of 0.542 enrichment R.

Consider B19, for which the binding signal turned out to be 0.242 enrichment R.

On to B20, for which the binding signal was 0.394 enrichment R.

In the case of B21, the binding signal is 0.303 enrichment R.

Molecule B22 showed a binding signal of 0.378 enrichment R.
